Out of some 48,000 compounds screened, about 450 (0.94%) were called active. About 19% were inconclusive and are not listed. Calls follow the shape of the dose curve; as a rule, active = well fitted inhibition curve with a large enough effect; inconclusive = small, poorly fitted or top-dose-only effect; inactive = no such curve, though single readings can be large or run the other way. The list shows a part of the results.
experiment: Primary qHTS for Identification of Small Molecule Inhibitors of Huntingtin Promoter Activity; conditions: HEK293 HTT promoter firefly luciferase reporter (activity 0% = vehicle and -100% = no light), 24 h; series mostly up to 57.5 µM; activity change, negative = inhibition: at the top concentration; also: nearly all actives have a fitted effect of over 50% in size
Summary of the method: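 HEK293 cells carrying firefly luciferase reporters were seeded at 2,500 per well in Opti-MEM and cultured for 24 h. They were then treated with compounds at up to 57.5 uM final for 24 h at 37 degrees C before Dual-Glo luminescence readout.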

Activity change, negative = inhibition, inactive:
CCCSc1nc2sc3c(c2c(=O)n1Cc1ccccc1)CC(C)(CC)OC3 (configuration not stated) -8.86%
COC(=O)c1nnn(-c2cccc(C)c2)c1C(=O)OC 4.74%
CCOC(=O)c1c(S(=O)(=O)NCC(=O)Nc2cc(C)ccc2C)c(C)n(C)c1C -10.2%
CCc1nn(Cc2cc(C)ccc2C)c(=O)c2cc3cc(C)ccc3n12 -0.333%
CCc1nn2c(=O)cc(COC(=O)c3ccco3)nc2s1 -10.2%
Cc1ccc(-c2cn3c(n2)sc2cc(C(=O)NC(C)C45CC6CC(CC(C6)C4)C5)ccc23)cc1 (configuration not stated) 28.1%
COc1ccc(N2CCN(C(=O)c3cc4c(s3)-c3ccccc3OC4)CC2)cc1 1.79%
COc1ccc(N2CC(NC(=O)c3ccc(Br)o3)CC2=O)cc1 (configuration not stated) 3.51%
O=C(Cn1ncc2c([nH]c3ccccc32)c1=O)NCC1CCN(Cc2ccc(F)cc2)CC1 -7.46%
CCOc1ccccc1CNC(=O)C1CCN(S(=O)(=O)c2ccc3c(ccn3C)c2)CC1 -1.1%
Cc1cc(Cl)ccc1NC(=O)CN(c1ccccc1Br)S(C)(=O)=O -19.1% [at 11.5 µM]
CCOc1ccc(C(=O)NCCS(=O)(=O)N2CCN(c3ccccc3F)CC2)cc1OCC -17.5%
COc1ccc(CN2CCN(c3ncnc4sc5c(c34)CC(C)CC5)CC2)cc1F (configuration not stated) -6.83%
COc1ccccc1N1CCN(CCCNC(=O)c2cnn(-c3ccccc3)c2C2CCN(C(=O)OC(C)(C)C)CC2)CC1 -10.1%
CCc1ccc(-n2c(Cc3ccccc3)nnc2SCc2nc(-c3cccs3)no2)cc1 -17%
Cc1ccc(/C=C/c2onc(C)c2S(=O)(=O)N2CCC(C(=O)NCC(C)c3ccccc3)CC2)cc1 (configuration not stated) -5.69%
CC1=C(C(=O)NCc2ccc(Cl)cc2)C2(CCCCC2)OC1=O -26.6%
CC(C)C(=O)Nc1ccc([N+](=O)[O-])c(C(F)(F)F)c1 -19.9%
CCCCCn1c(-c2ccc(OC)c(OC)c2)nc2ccccc21 13.1%
Cc1ccc(Cl)cc1N1CCN(S(=O)(=O)c2ccc3c(c2)CCCN3C(=O)C2CCC2)CC1 -17.3%
Cc1ccc(CN2C(=O)c3oc4ccc(C)cc4c(=O)c3C2c2ccc(O)cc2)cc1 (configuration not stated) 0.356%
Cc1ccc(OCC(=O)N(Cc2ccco2)Cc2ccc(C)o2)cc1 -28.5%
CCC(C)NC(=O)c1nn(-c2ccc(C)cc2)c(=O)n(C)c1=O (configuration not stated) -2.97%
COc1ccc(-c2cc(C(F)(F)F)n3nc(C(=O)Nc4ccccc4SC)cc3n2)cc1OC -3.72%
COc1cc2c(=O)n(CCC(=O)NCC3CCCO3)c(=O)n(CC(=O)Nc3ccc(C)c(C)c3)c2cc1OC (configuration not stated) -22.2%
COc1cccc(CCNC(=O)c2c(O)nc3ccccn3c2=O)c1 16.8%
CC(C)c1cccc(OCCn2c(-c3ccc(Cl)cc3)nc3ccccc3c2=O)c1 -9.4%
COCCCNC(=O)C1CCN(c2nn3cc(-c4ccc(F)cc4)nc3s2)CC1 8.17%
Cc1ccccc1C(=O)OCc1cc(=O)n2nc(-c3cccs3)sc2n1 -15%
CC(=O)O[C@]1(C(C)=O)CC[C@@H]2[C@@H]3C[C@H](C)C4=CC(=O)CC[C@]4(C)[C@H]3CC[C@@]21C -10.7%
CC1=C(C(=O)Nc2ccccc2)C(c2cccs2)n2nc(SCc3ccccc3F)nc2N1 (configuration not stated) -10.1%
Cc1ccc(C)c(NC(=O)c2cc(S(=O)(=O)N3CCCCCC3)ccc2F)c1 -23%
CN(C)CCN(Cc1ccco1)C(=O)c1oc2ccccc2c1NC(=O)c1ccccc1 -26.3%
Cc1ccc2c(=O)c(C(=O)c3cccc(Cl)c3)cn(CC(=O)Nc3ccc4c(c3)OCCO4)c2n1 -17.8%
Cn1cc(S(=O)(=O)c2cccc(Cl)c2)c(=O)c2cc(F)c(N3CCN(c4ccccc4)CC3)cc21 -1.94%
O=C(CSc1nnc(NC(=O)Nc2ccccc2)s1)Nc1cccc(F)c1 22.2%
COc1ccc(CCCc2nnc(SCC(=O)Nc3ccc(OC)cc3)o2)cc1 -8.66%
CN1C(=O)Cc2cc(S(=O)(=O)CCC(=O)Nc3ccc(F)c(Cl)c3)ccc21 -10.5%
CN(C)[C@@H]1C(=O)C(C(N)=O)=C(O)[C@@]2(O)C(=O)C3=C(O)c4c(O)ccc(Cl)c4[C@@H](O)[C@H]3C[C@@H]12 -0.562%
O=C(Nc1cc(F)ccc1F)N1CCC(CN2CCCC2)CC1 -18.3%
COc1ccc2c(c1)CCCC2=O 15%
CCc1ccccc1Nc1cc(C(=O)NC(C)c2ccccc2)c2ccccc2n1 (configuration not stated) 6.93%
CCCc1nn2c(=O)cc(COC(=O)c3ccccc3NC(=O)c3ccc(Cl)cc3)nc2s1 10%
CCOC(=O)c1ccccc1NC(=O)N1CCC(CN2CCCCC2)CC1 -8.38%
Cc1ccc(NC(=O)C(C)Sc2nc(=O)cc(N)n2-c2ccccc2)cc1 (configuration not stated) -17.3%
CCCC(=O)Nc1ccc(-c2nc3ncccc3o2)cc1C 42.1%
CCOc1ccc(NC(=O)C2CCN(c3nnc(-n4c(C)ccc4C)s3)CC2)cc1 -21.3%
COCCNC(=O)c1cccc(-n2c(C)nc3cccnc32)c1 -19.9%
Cc1nc(-c2cccnc2)sc1CCNS(=O)(=O)c1ccc(F)cc1 -11.2%
COc1ccc(-c2cc(C(F)(F)F)nc(SCC(=O)NCCc3ccccc3)n2)cc1OC -22.5%
CCc1sc(Nc2cccc(C)c2C)nc1-c1cc2cccc(OC)c2oc1=O -10%
COc1cc(OC)cc(-n2c(=O)c3sccc3n(Cc3c(C)cc(C)cc3C)c2=O)c1 -26%
COc1ccc(NC(=O)Cn2c(=O)n(CCc3ccccc3)c(=O)c3ccccc32)cc1 15.3%
COc1cccc(CNS(=O)(=O)c2cc3c(cc2C)n(C)c(=O)c(=O)n3C)c1 4.91%
Cc1noc(-c2ccc(NCc3ccccc3)c([N+](=O)[O-])c2)n1 14.3%
CCCCNC(=O)c1c(C)oc2ncn(CC(C)C)c(=O)c12 -20.7%
CCOc1ccc(NC(=O)Cn2nc(-c3ccncc3)ccc2=O)cc1 -22.2% [at 11.5 µM]
O=C(c1cccc(Cl)c1)N1CCN(CCc2ccccn2)CC1 -23.3%
Cc1ccccc1OCC(=O)Nc1cc(-c2cccc(Br)c2)nn1-c1ccccc1 1.48%
O=C(NCc1nc2cccnc2n1Cc1ccc(F)cc1)c1ccccc1C(F)(F)F -14.9%
Nc1c(-c2nc(-c3ccncc3)no2)nnn1CC(=O)Nc1ccccc1 -11.1%
COc1ccccc1CNCCSc1nnnn1C -6.58%
COc1ccc(C(=O)N(Cc2ccco2)Cc2ccco2)cc1 -1.23%
Cc1ccccc1CN1C(=O)c2ccccc2Sc2ccc(C(=O)NCc3cccs3)cc21 -25.3%
Cc1noc(/C=C/c2ccccc2F)c1S(=O)(=O)N1CCC(C(=O)N(C)Cc2ccco2)CC1 -26.5%
COC(=O)c1c(N)n(-c2cc(Cl)cc(Cl)c2)c2nc3ccccc3nc12 -8.58%
CCC(=O)N1CCc2cc(Br)cc(S(=O)(=O)N3CCCC(C(=O)NCc4ccccc4)C3)c21 (configuration not stated) -25.4%
COc1ccc(S(=O)(=O)NCC(c2ccco2)N2CCOCC2)cc1C (configuration not stated) -21%
COc1ccccc1N1CCN(S(=O)(=O)c2c(C)sc3ncn(CC(=O)Nc4ccccc4F)c(=O)c23)CC1 -8.43%
CCOc1ccc(/C=C/c2nc3ccccc3n2S(=O)(=O)c2ccc(Br)cc2)cc1 28.6%
COc1cccc(NC(=O)Cn2c(=O)n(-c3ccc(Cl)cc3)c(=O)c3sc4ccccc4c32)c1 -13%
O=C(Cn1c(=O)nc(-c2ccccc2)c2cc(Cl)ccc21)NCCc1ccc(Cl)cc1 -19.9%
CCN1CCN(c2ncc3c(n2)CCN(Cc2ccc(Br)s2)C3)CC1 -20.9%
CCc1ccc(-c2[nH]nc3nc(-c4ccc(OC)cc4)cc(C(=O)NCCc4ccc(OC)c(OC)c4)c23)cc1 -50.8%
CCOc1ccc(NC(=O)CSc2nnc(CNC(=O)c3c(F)cccc3Cl)o2)cc1 -7.76%
Cc1ccc2c(c1)N(C(=O)NCc1ccccc1)CCO2 2.93%
CCC(C)NC(=O)c1ccc2c(=O)n3c(nc2c1)CCCCC3 (configuration not stated) 10.7%
Cc1ccc(NC(=O)Cn2nnc3sc(-c4ccccc4)cc3c2=O)cc1Cl 15.2%
COc1ccc(C(=O)NCC2(N3CCN(C)CC3)CCCCC2)cc1 -10.3%
COC(=O)c1ccc(Cl)cc1NC(=O)N(Cc1ccc(C)o1)C1CCN(C(C)=O)CC1 -14.8%
COc1ccc(C)cc1NS(=O)(=O)c1ccc2c(c1)n(C)c(=O)n2C -6.92%
CCC(CC)c1nn2c(=O)cc(COc3ccc(NC(=O)c4cccc(Cl)c4)cc3)nc2s1 -11.5%
CCn1c(=O)c(=O)n(CC)c2cc(N3CCCCC3)c(NC(=O)c3cccc(F)c3)cc21 -2.78%
Cc1nnc2c(Nc3cccc(O)c3)nc3ccccc3n12 15.6%
CCCN1Cc2cccc(C(=O)Nc3cc(C)cc(C)c3)c2C1=O -6.5%
CC(=O)Nc1ccc(C)cc1-c1nc2ccccc2n(CC(=O)Nc2cc(Cl)ccc2C)c1=O -9.37%
COc1ccc(Cl)cc1NC(=O)CCC(=O)N1CCOc2ccccc21 -29.9%
O=C1c2cccc3c2[C@H](CCC3)CN1[C@@H]1CN2CCC1CC2 6.13%
COc1ccc(NC(=O)CSc2nc(-c3ccco3)cc(C(F)(F)F)n2)cc1 -28.8%
COc1ccc(CC(=O)NCC(c2ccc(N(C)C)cc2)N2CCOCC2)cc1 (configuration not stated) -5.25%
CC(C)c1ccc(OC(=O)c2cc(-c3ccc(Cl)cc3)on2)cc1 -15.1%
Cc1ccc(-n2ncc3c(NCCCn4ccnc4)ncnc32)cc1Cl -19.5%
COc1ccc(N2C(=O)C(CC(=O)Nc3ccc(F)cc3)N(Cc3ccc4c(c3)OCO4)C2=O)cc1 (configuration not stated) -22.4%
CCN(CC)C(=O)Cn1c(=O)nc(-c2ccccc2F)c2cc(Cl)ccc21 -6.12%
CCCNC(=O)N1[C@H](c2ccc(C)s2)[C@@H](C)C(=O)[C@@H](C)[C@@H]1c1ccc(C)s1 -15.6%
NC(=O)COCCN1CCN(C(c2ccccc2)c2ccc(Cl)cc2)CC1 (configuration not stated) 2.77%
O=C1c2[nH]nc(-c3ccccc3O)c2C(c2ccccc2F)N1Cc1ccncc1 (configuration not stated) -11.1%
